Measurements reported in the supplement of paper PMC6206098.
± gives the uncertainty stated by the source. Shown are siRNA guide strands that differ only in the seed, positions 2 to 7.

Legend:
3LL = test: cell viability relative to siNT1 control; higher = less toxic; settings: concentration: 10 nM; 96 h; Mus musculus;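 note: Luminescence-based viability of cells reverse transfected in 384-well plates with lipid-complexed siRNAs built on a non-toxic 19mer backbone whose passenger strand carries 2′-O-methyl groups at positions 1 and 2, triplicates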
Procedure: (§1)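 Arrayed screen of 4096 siRNA duplexes, each carrying one of all possible 6mer seeds at guide-strand positions 2-7 in a fixed neutral 19mer scaffold (constant flanks: U at position 1, then ACAUGUAAACCA, plus a 3' AA overhang). The passenger strand is 2'-O-methylated at positions 1-2 so only the guide strand loads into RISC. Duplexes were reverse-transfected at 10 nM with RNAiMAX in triplicate in 384-well plates; viability was read by CellTiter-Glo ATP content 96 h after transfection. Values are % viability normalised to lipid-only wells (HeyA8, H460, M565) or to siNT1 (3LL).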

H460 = test: cell viability relative to lipid-only control; HeyA8 human ovarian and H460 human lung cancer; M565 mouse liver and 3LL mouse lung cancer; siNT1 is a non-toxic control siRNA; higher = less toxic; settings: concentration: 10 nM; 96 h; Homo sapiens
Procedure: as §1

HeyA8 = test: as above; settings: concentration: 10 nM; 96 h; Homo sapiens
Procedure: as §1

M565 = test: as above; settings: concentration: 10 nM; 96 h; Mus musculus
Procedure: as §1
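Throughout, for cell viability relative to lipid-only control: reverse lipid transfection in 384-well plates, in triplicate, of duplexes on a non-toxic 19mer backbone with passenger strand 2′-O-methylated at positions 1 and 2, luminescence viability read-out.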

Sequence | cell viability (3LL) | cell viability (H460) | cell viability (HeyA8) | cell viability (M565)
UACUCUCACAUGUAAACCAAA | 51.5 ± 13% | 34.8 ± 1.5% | 51.6 ± 1.4% | 40 ± 1.9%
UGGCCAAACAUGUAAACCAAA | 54.7 ± 9.5% | 59.2 ± 12% | 54 ± 7.7% | 34.2 ± 0.51%
UCUGAUGACAUGUAAACCAAA | 90.5 ± 12% | 49.9 ± 5.7% | 87.5 ± 10% | 56.5 ± 16%
UAAUUGAACAUGUAAACCAAA | 103 ± 3.6% | 84.3 ± 2.4% | 94.4 ± 5.2% | 80.9 ± 13%
UUAAAAUACAUGUAAACCAAA | 82.8 ± 11% | 77.4 ± 14% | 93.4 ± 4.8% | 78.9 ± 12%
UACCACUACAUGUAAACCAAA | 66.5 ± 15% | 40.8 ± 8% | 52.7 ± 4% | 7.26 ± 1.7%
UAUACAAACAUGUAAACCAAA | 114 ± 13% | 73.6 ± 12% | 100 ± 9.2% | 110 ± 11%
UGUCGUUACAUGUAAACCAAA | 53.6 ± 10% | 60.6 ± 9% | 53.6 ± 6.6% | 29.8 ± 4%
UUUGCAGACAUGUAAACCAAA | 102 ± 2.2% | 72.9 ± 6.6% | 102 ± 8% | 80.8 ± 8.8%
UGUCUAGACAUGUAAACCAAA | 34 ± 6.5% | 50.8 ± 6.1% | 58.3 ± 2.2% | 56 ± 5.5%
UGGUGUCACAUGUAAACCAAA | 31.8 ± 4.2% | 37.3 ± 0.89% | 23.9 ± 0.82% | 10.2 ± 4.9%
UCAUUGGACAUGUAAACCAAA | 83.2 ± 12% | 36.7 ± 7.3% | 23.7 ± 1.4% | 39.5 ± 7.5%
UCCAACAACAUGUAAACCAAA | 111 ± 28% | 70.2 ± 10% | 78.2 ± 14% | 75.5 ± 15%
UUAGUGUACAUGUAAACCAAA | 67.8 ± 3.7% | 43.1 ± 8.7% | 37.3 ± 4% | 13.3 ± 4.9%
UUGCGAAACAUGUAAACCAAA | 105 ± 7.6% | 118 ± 12% | 95 ± 16% | 90.3 ± 14%
UAGGCUAACAUGUAAACCAAA | 81.8 ± 10% | 69.4 ± 13% | 62.6 ± 4.8% | 40.5 ± 1.2%
UCUUCCAACAUGUAAACCAAA | 89.5 ± 8.8% | 68.4 ± 11% | 80.1 ± 11% | 82.1 ± 11%
UACAGUCACAUGUAAACCAAA | 29.8 ± 5.8% | 74.6 ± 7.6% | 35.1 ± 3.2% | 12.5 ± 3.3%
UACCUGGACAUGUAAACCAAA | 59 ± 15% | 65.6 ± 11% | 51.7 ± 5% | 56.9 ± 9%

Sequence | cell viability (3LL) | cell viability (H460) | cell viability (HeyA8) | cell viability (M565)
UGUCCACACAUGUAAACCAAA | 52.1 ± 3.7% | 42.9 ± 4.8% | 7.3 ± 0.36% | 22.3 ± 2.9%
UAGAUACACAUGUAAACCAAA | 36.2 ± 7.5% | 76.1 ± 12% | 71.7 ± 5.3% | 54 ± 4%
UUGCAGAACAUGUAAACCAAA | 67.9 ± 5.7% | 69.6 ± 6.8% | 77 ± 1.3% | 65.2 ± 11%
UGGUGGUACAUGUAAACCAAA | 3.4 ± 0.52% | 5.8 ± 1.7% | 1.95 ± 0.18% | 12.1 ± 6.9%
UGCAAGGACAUGUAAACCAAA | 45.9 ± 9.8% | 64.2 ± 8.4% | 56.7 ± 12% | 19.2 ± 1.5%
UCUUGCGACAUGUAAACCAAA | 97.3 ± 20% | 58.9 ± 8.8% | 66 ± 13% | 70.1 ± 16%
UCAGCAUACAUGUAAACCAAA | 94.1 ± 19% | 58.6 ± 4.2% | 82.2 ± 3.3% | 57.9 ± 6%
UGUGUGGACAUGUAAACCAAA | 29.5 ± 7.2% | 19.9 ± 0.94% | 17.6 ± 1.9% | 12.8 ± 3.5%
UACUCGCACAUGUAAACCAAA | 21.7 ± 5.1% | 69.7 ± 14% | 78.4 ± 8.3% | 17.3 ± 5.1%
UCGCUUGACAUGUAAACCAAA | 87.6 ± 23% | 69.1 ± 3.4% | 54.1 ± 3.9% | 63.9 ± 9.6%
UCUUUACACAUGUAAACCAAA | 86.9 ± 14% | 70.1 ± 0.89% | 82.7 ± 5.6% | 76.2 ± 3.3%
UCACGCCACAUGUAAACCAAA | 81.7 ± 21% | 20.2 ± 1.6% | 65.3 ± 3.8% | 29.4 ± 6.3%
UCAAUAUACAUGUAAACCAAA | 85.7 ± 11% | 70.2 ± 18% | 76.4 ± 14% | 73.8 ± 12%
UGUGAAUACAUGUAAACCAAA | 76.6 ± 4.6% | 47.3 ± 7.5% | 52.2 ± 3.8% | 29.8 ± 2.1%
UUGGCUGACAUGUAAACCAAA | 27.7 ± 3.7% | 70 ± 9.9% | 69.3 ± 1.3% | 67.5 ± 24%
UGCGUGAACAUGUAAACCAAA | 94.6 ± 11% | 80 ± 5.2% | 78.8 ± 2.7% | 55.5 ± 2.2%
UUUCCCCACAUGUAAACCAAA | 13 ± 3% | 62.1 ± 8.6% | 52.4 ± 0.74% | 14.1 ± 2.5%
UAGAGCUACAUGUAAACCAAA | 16.4 ± 1.8% | 48.7 ± 10% | 53 ± 4.4% | 31.1 ± 1.6%
UGUUAUGACAUGUAAACCAAA | 88.7 ± 6.9% | 79.8 ± 9.2% | 90.5 ± 5.4% | 66.2 ± 14%

Sequence | cell viability (3LL) | cell viability (H460) | cell viability (HeyA8) | cell viability (M565)
UUUAUUGACAUGUAAACCAAA | 102 ± 6.9% | 92.9 ± 18% | 88.2 ± 3% | 96.1 ± 2.1%
UUUAAUUACAUGUAAACCAAA | 98.3 ± 6.1% | 80.3 ± 12% | 96 ± 7.8% | 85.7 ± 15%
UUUAGUCACAUGUAAACCAAA | 90.8 ± 3.5% | 78.4 ± 12% | 77.3 ± 8% | 89 ± 13%
UCCGAAUACAUGUAAACCAAA | 95.9 ± 27% | 80.5 ± 21% | 83.7 ± 8.4% | 79.1 ± 18%
UGAUCUUACAUGUAAACCAAA | 96.7 ± 20% | 56.9 ± 6.6% | 40 ± 1.2% | 58.3 ± 5.3%
UAGCAUUACAUGUAAACCAAA | 84.1 ± 11% | 83.3 ± 6.9% | 65.9 ± 1.6% | 64.2 ± 16%
UUUUUACACAUGUAAACCAAA | 93 ± 7.5% | 73.5 ± 5.6% | 95.1 ± 4% | 94.2 ± 6.7%
UACGACGACAUGUAAACCAAA | 89.8 ± 12% | 72.5 ± 4.1% | 86.4 ± 7.4% | 82.2 ± 9.9%
UCCAUAUACAUGUAAACCAAA | 83 ± 12% | 63.6 ± 3.3% | 66.9 ± 5.4% | 76.9 ± 14%
UAAUAGCACAUGUAAACCAAA | 26 ± 2.9% | 29.7 ± 1.2% | 38.2 ± 3.8% | 12.4 ± 1.9%
UUCCAGGACAUGUAAACCAAA | 61.2 ± 16% | 57.4 ± 5.2% | 80.1 ± 10% | 23.8 ± 7.8%
UCGUAGCACAUGUAAACCAAA | 51.8 ± 9.9% | 12.5 ± 1% | 8.46 ± 1% | 28.7 ± 7.1%
UGUACCUACAUGUAAACCAAA | 55.7 ± 9.5% | 54.3 ± 7.7% | 55.6 ± 3.3% | 16.7 ± 4.4%
UAGAGUGACAUGUAAACCAAA | 60.6 ± 2.8% | 61.9 ± 9% | 77.3 ± 8.4% | 32.5 ± 2.4%
UCAUACGACAUGUAAACCAAA | 100 ± 14% | 36.8 ± 2.7% | 91.5 ± 12% | 84 ± 17%
UUUAAUGACAUGUAAACCAAA | 91.7 ± 12% | 76.3 ± 5.5% | 96.5 ± 5.6% | 84.1 ± 10%
UCACGUAACAUGUAAACCAAA | 99.4 ± 12% | 40.5 ± 11% | 84.7 ± 2.5% | 69.9 ± 10%
UUCAGUUACAUGUAAACCAAA | 45.1 ± 8.9% | 46.6 ± 2.4% | 69.9 ± 7.3% | 24.1 ± 6.7%
UGCGUGCACAUGUAAACCAAA | 30.4 ± 3.5% | 40.6 ± 0.96% | 6.13 ± 0.44% | 23.7 ± 1.5%
